Screen size: about 370,000 compounds; about 150 (0.041%) were called active. This list was built around the results that the source calls inconclusive (neither active nor inactive); the mix of calls is not that of the screen. The call rests on the fitted dose curve; in most records, active means well fitted inhibition curve with a large enough effect; inconclusive means small, poorly fitted or top-dose-only effect; inactive means flat fitted curve, though single readings scatter. Potencies of inconclusive entries are left out as doubtful fits.
Each molecule was assayed against Beta-lactamase (Escherichia coli (strain K12)) (UniProt P00811) (assay: qHTS Inhibitors of AmpC Beta-Lactamase (assay with detergent)). Details: AmpC hydrolysis of nitrocefin, absorbance 480 nm, 0.01% Triton; activity change, negative = inhibition: at 114 µM (top of the series).
Chain of UniProt P00811 (P00811 whole entry, looked up): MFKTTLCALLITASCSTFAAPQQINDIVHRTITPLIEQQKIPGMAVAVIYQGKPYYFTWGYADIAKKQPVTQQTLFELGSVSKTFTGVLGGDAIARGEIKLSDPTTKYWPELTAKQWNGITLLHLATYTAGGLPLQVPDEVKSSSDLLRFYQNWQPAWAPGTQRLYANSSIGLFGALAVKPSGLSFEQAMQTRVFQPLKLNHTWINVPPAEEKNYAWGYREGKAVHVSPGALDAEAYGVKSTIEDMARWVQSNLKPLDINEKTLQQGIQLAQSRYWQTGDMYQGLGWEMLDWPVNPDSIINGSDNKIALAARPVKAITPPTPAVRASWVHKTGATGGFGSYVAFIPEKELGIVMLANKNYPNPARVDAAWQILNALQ
In short: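 20 mM phosphate pH 7.0 + 0.01% (detergent screen) or 0.0001% Triton X-100; 5.3 nM AmpC reagent; cpd preinc 15 min RT; nitrocefin (800 uM stock) to start; A480 q20 s × 4 min; Activity was normalised to no-enzyme and no-compound control wells.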
Further: nearly all actives have a fitted effect of over 25% in size.
Potency means the concentration at half of the fitted maximal effect; tags describe the fitted curve by direction and shape.
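Wherever activity change, negative = inhibition is given: 0% = no-compound wells and -100% = no-enzyme wells.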

SMILES	Potency	activity change, negative = inhibition
CCc1nc2c(cnn2-c2ccc(Cl)cc2)c(=O)n1-c1ccc(OC)cc1	inconclusive [inhibitor, full curve, poor fit]	
CCSc1nnc(NC(=O)c2cc(C)nc3ccccc23)s1	inconclusive [inhibitor, single point]	
COc1ccc(-c2cc(C(=O)Oc3cccc(C)c3C)c3ccccc3n2)cc1		inactive: 5.28%
COc1ccc(Nc2nc(OC)nc(OC)n2)cc1	inconclusive [inhibitor, partial curve, poor fit]	
Cc1ccc(CNC(=O)c2ccc(Cn3cc(-c4ccc(C)cc4)nc3-c3ccncc3)cc2)cc1	inconclusive [inhibitor, partial curve, poor fit]	
C=CCN=C(NC#N)SC		inactive: 7.15%
COc1ccc(C(=O)Nc2ccc(-c3cn4ccsc4n3)cc2)cc1S(=O)(=O)N1CCOCC1	inconclusive [inhibitor, partial curve]	
Cc1cc(C(=O)N/N=C/c2ccncc2)c(C)o1		inactive: -4.72%
CC(NC(=O)c1ccccc1F)C1CC1 (stereo not given)		inactive: -5.15%
CCOC(=O)/C(C#N)=C/Nc1cc(C(=O)OCC)cc2c(OC)c(OC)ccc12	inconclusive [inhibitor, full curve, poor fit]	
CCc1ccc(CN/C=C/C(=O)c2ccc(Br)cc2)cc1	inconclusive [inhibitor, full curve, poor fit]	
O=C(O)c1cccc(Cn2cccn2)c1	inconclusive [inhibitor, partial curve]	
CC(=O)NC(CC(=O)NC1CCCCC1)c1ccccc1 (stereo not given)		inactive: -3.5%
CC1CCN(c2nc3ccccc3nc2C(C#N)C(=O)NC2CCCCC2)CC1 (stereo not given)	inconclusive [inhibitor, partial curve, poor fit]	
CS(=O)(=O)Nc1cc2c3c(c1)CCC(=O)N3CCC2	inconclusive [inhibitor, full curve, poor fit]	
Cc1ccc(OC(=O)c2cc3ccccc3o2)cc1	inconclusive [inhibitor, single point]	
Cc1cccc(Cc2nnc(CCC(=O)N(C)CCc3ccccc3)o2)c1		inactive: 1.7%
COc1ccc2c(c1)CCc1c(C(=O)NCc3ccco3)noc1-2		inactive: -12.2%
CC1=NN(c2ccccc2)C(=O)/C1=C\c1ccc(Oc2ccc([N+](=O)[O-])cc2[N+](=O)[O-])cc1	inconclusive [inhibitor, full curve]	
CCCC(CCC)n1[nH]c(=O)c2c(C)cc(C)nc21	inconclusive [inhibitor, full curve, poor fit]	
